Assay results taken from ChEMBL document CHEMBL4888484, “Replenishing the malaria drug discovery pipeline: Screening and hit evaluation of the MMV Hit Generation Library 1 (HGL1) against asexual blood stage Plasmodium falciparum ,using a nano luciferase reporter read-out” (2022).
Where “and” joins values, the source holds several entries; their conditions need not be identical. Equal entries are not always repeated. The campaign covered roughly 150,000 compounds. About 540 (0.36%) showed an effect of 50% or more. The list shows a part of the results.

Tested on: Plasmodium falciparum
Experiment: Primary screen in NF54 nanoGlo assay, in single point, at 2uM, 72h; a lower Z score goes with more inhibition
Type: functional, Erythrocyte
Conditions: timepoint 72 hour

CCn1nnc(NC(=O)c2ccc(Cl)o2)n1
% Inhibition: 0%
Z score: 0.03

Cn1cc([C@@H]2CCCN2Cc2noc(C(C)(C)C)n2)cn1
% Inhibition: 1%
Z score: -0.21

COc1cc(C(=O)N2CC[C@@H]3CC[C@@]32c2cccnc2)sn1
% Inhibition: 4%
Z score: -0.74

Cn1ncc(C(=O)N[C@H]2CCC[C@@H](C3CC3)C2)c1-n1cnnc1
% Inhibition: -4%
Z score: 0.79

COC[C@@H]1CCC[C@@H]1NC(=O)c1cnc(N)nc1C
% Inhibition: -3%
Z score: 0.56

Cc1nc(CN2CCS(=O)(=O)[C@@H](C)C2)oc1C
% Inhibition: -9%
Z score: 1.07

Fc1ccc(-c2noc([C@@H]3CCCN3CC3CCCCC3)n2)nc1
% Inhibition: -5%
Z score: 0.66

CN(C)C(=O)c1cc[nH]c1[C@H]1CCCN(Cc2ccc(F)cc2Cl)C1
% Inhibition: 11%
Z score: -1.39

COCCN1C[C@H]2CN(Cc3cnn(C)c3)CCN2C1=O
% Inhibition: -3%
Z score: 0.61

CCC(NC(C)c1sccc1C)c1c(C)nn(C)c1C (stereo not given)
% Inhibition: 3%
Z score: -0.37

Cc1csc([C@H](C)NCCOc2cccc(C#N)c2)n1
% Inhibition: -2%
Z score: 0.28

CCc1nn(C)c(Nc2nc3c(s2)c(C)nn3C)c1C
% Inhibition: -8%
Z score: 1.44

CCc1cc(C(=O)N2CCC[C@H](N)C2)cc(=O)[nH]1
% Inhibition: 1%
Z score: -0.18

O=C(c1cccc(C(F)(F)F)c1F)N1CCC2CCC(C1)N2 (stereo not given)
% Inhibition: -11%
Z score: 2.16

CC(C)c1ccc(CN2CCC[C@@](O)(CN3CCOCC3)C2=O)cc1
% Inhibition: -4%
Z score: 0.57

Cc1cc(C)c(-c2csc(NC(=O)c3cccc(N(C)C)c3)n2)cc1C
% Inhibition: -4%
Z score: 0.84

CCNC(=O)NCCOC(=O)c1ccccc1F
% Inhibition: -19%
Z score: 1.9

CCOC(=O)c1nn(C)cc1CNc1ccc(Cl)cn1
% Inhibition: -2%
Z score: 0.29

Cn1ccnc1CN1C[C@@H](F)C[C@H]1CNCc1c(Cl)cnn1C
% Inhibition: -8%
Z score: 1.01

CCc1nc(-c2cc(C)n(C)n2)n(-c2ccncc2)n1
% Inhibition: 4%
Z score: -0.44

CN(C)C(=O)C1(N(C(=O)OC(C)(C)C)C2CC2)CCC1
% Inhibition: -11%
Z score: 1.07

Cc1noc(-c2csc(C(=O)NC3CC3)n2)n1
% Inhibition: 1%
Z score: -0.11

N#Cc1cn[nH]c1NC(=O)C(=O)NCCc1c[nH]c2ccccc12
% Inhibition (2 µM): -4% and -7%
Z score (2 µM): 0.49 and 0.87

Cc1[nH]ccc1C(=O)NCc1ccc(N2CCCC[C@@H]2CCO)nc1
% Inhibition: -9%
Z score: 1.21

COc1ccc(C2=C[C@@H](c3ccc(F)cc3)n3ncc(C(=O)Nc4ccc(C)cc4)c3N2)cc1
% Inhibition: 2%
Z score: -0.16

CCn1nc(CNC(=O)COC[C@H]2CCCO2)c2ccccc21
% Inhibition: 2%
Z score: -0.38

Cc1ccn2c(Nc3ccc4c(c3)OCO4)c(-c3ccco3)nc2c1
% Inhibition: -16%
Z score: 1.81

Cc1nnc(NC(=O)Cn2ccc3cc(OCc4ccccc4)ccc32)s1
% Inhibition: -4%
Z score: 0.52

Cc1ccc(F)cc1CNCCc1nnc[nH]1
% Inhibition: -20%
Z score: 2.59

COC1CCN(C(=O)C2=NN(c3ccccc3)C(=O)CC2)CC1
% Inhibition: -40%
Z score: 4.7

Cc1ccc(C)c(Cn2cnc3c(nnn3C)c2=O)c1
% Inhibition: -9%
Z score: 1.37

CCc1cnc(N(C)Cc2cc(C3CC3)on2)nc1
% Inhibition: -13%
Z score: 1.46

Cc1ccc2nc(NC(=O)[C@H]3CCCN(S(=O)(=O)c4cc(-c5noc(C)n5)sc4C)C3)sc2c1
% Inhibition: 2%
Z score: -0.22

Cc1ocnc1C(=O)NCc1ccc2[nH]c(-c3ccc(F)cc3)c(C)c2c1
% Inhibition: -12%
Z score: 1.4

CN1CCC(N2CCN(c3ncccc3Cl)C[C@@H](O)C2)CC1
% Inhibition: -8%
Z score: 1.51

COc1cc2c(cc1OC)CC(=O)N(CCC(=O)Nc1nccs1)C=C2
% Inhibition: -13%
Z score: 1.62

O=C(c1cnccn1)N1CCc2[nH]c(-c3ccccc3)nc2C1
% Inhibition: 0%
Z score: 0.06

COc1ccc(C(=O)N[C@H]2CC[C@@H]3CCC[C@@H]32)o1
% Inhibition: 3%
Z score: -0.39

CC(C)n1cc(S(=O)(=O)Nc2cc(F)ccc2Cl)c2cccnc21
% Inhibition: 22%
Z score: -2

O=C(NCC1CCC2(CC1)OCCO2)C1CC=CC1
% Inhibition: 1%
Z score: -0.18

CNC(=O)[C@@H]1C[C@H](N)CN1C(=O)c1cc(C)sc1NC(=O)C(C)(C)C
% Inhibition: -1%
Z score: 0.12

Cc1cc(C)cc(C(=O)N/C(=N\c2ccc3c(c2)OCCO3)NCCc2c(C)nn(C)c2C)c1
% Inhibition: 4%
Z score: -0.83

C[C@@H](c1cccs1)N(C)CCN1CCOC1=O
% Inhibition: -10%
Z score: 1.05

Fc1cc(CCNCc2cccs2)c2c(c1)COCO2
% Inhibition: -17%
Z score: 2.19

O=C(Nc1nc(C2CCOCC2)cs1)NC1CC1C1CCCCC1 (stereo not given)
% Inhibition: -3%
Z score: 0.43

O=C1NCCN(C(=O)c2ccnn2CC(F)F)c2ccccc21
% Inhibition: -3%
Z score: 0.58

Cc1cc(COc2nccc(C(F)(F)F)n2)nc(C)n1
% Inhibition: 2%
Z score: -0.3

O=C(COc1ccccc1)N1C[C@@H]2[C@@H]3CC[C@@H](C3)[C@@H]2C1
% Inhibition: -8%
Z score: 1.17

CCCCN(CCCC)C[C@H](O)COCc1cccc(OC)c1
% Inhibition: -12%
Z score: 1.63

Cc1nn(C)cc1NC(=O)[C@@H]1CCCCCN1C
% Inhibition: -10%
Z score: 1.85

O=C1C(=O)N(CN2CCN(Cc3ccccc3F)CC2)c2ccccc21
% Inhibition: -25%
Z score: 2.92

CCOc1ccc(S(=O)(=O)N2CCC(N3C(=O)CNC3=O)CC2)cc1F
% Inhibition: -2%
Z score: 0.38

O=C(c1ccc[nH]1)N1CCN(Cc2ccncc2)[C@@H]2CS(=O)(=O)C[C@@H]21
% Inhibition: -5%
Z score: 0.94

CCN1CCC(NC(=O)c2cccc3ccccc23)CC1
% Inhibition: -13%
Z score: 1.6

COc1cc(C(=O)Nc2nc(C)nn2C)ccc1Cl
% Inhibition: -9%
Z score: 1.22

COc1ccc(N2C[C@@H](NC(=O)NCc3ccc4[nH]c5c(c4c3)CCCC5)CC2=O)cc1OC
% Inhibition: 13%
Z score: -1.68

COc1cc(C(=O)NC[C@H]2CCCO2)c(N(C)S(C)(=O)=O)cc1OC
% Inhibition: 7%
Z score: -1.04

CCOC(=O)N1CCN(C(=O)COc2ccc(C)cn2)CC1
% Inhibition: -9%
Z score: 1.13

CCOc1cccc2[nH]cc(CC(=O)N[C@H](c3nccn3C)C3CC3)c12
% Inhibition: 7%
Z score: -0.9

CC(C)Oc1ccc(C(=O)NCCn2ccn3nc(-c4cccs4)cc23)cc1
% Inhibition: 2%
Z score: -0.28

COCCCNC(=O)CN(C)c1cc(Cl)ccc1C#N
% Inhibition: -6%
Z score: 0.76

Cc1ccc(NC(=O)NCCn2nnc3cc(S(=O)(=O)NC(C)C)ccc32)c(C)c1
% Inhibition: -23%
Z score: 2.3

CCCCOc1ccc(-c2cc3c(N4CCN(Cc5ccc6c(c5)OCO6)CC4)nccn3n2)cc1
% Inhibition: 3%
Z score: -0.49

CS(=O)(=O)N1CCCCC[C@H]1c1noc(-c2ccccc2)n1
% Inhibition: 5%
Z score: -0.62

C[C@@H](CN(C)C(=O)c1nc(=O)[nH][nH]1)Oc1ccc(Cl)c(Cl)c1
% Inhibition: -2%
Z score: 0.19

CCc1[nH]nc(NCc2cc(Cl)cc(Cl)c2OC)c1C
% Inhibition: -8%
Z score: 1.42

COc1cccc(C(=O)N2CCC([C@]3(CCC(C)C)NC(=O)N(CCN(C)C)C3=O)CC2)c1OC
% Inhibition: -8%
Z score: 1.37

CN(CCc1cn[nH]c1)c1nc2nonc2nc1N1CCCCCC1
% Inhibition: -7%
Z score: 0.65

C[C@@H]1CN(CCN(C)S(=O)(=O)c2cccnc2)C[C@H](C)O1
% Inhibition: -24%
Z score: 2.77

COc1cccn(CC(=O)N2CCC(c3nc4ccccc4o3)CC2)c1=O
% Inhibition: -8%
Z score: 0.88

Cn1nc(CNC(=O)c2ccc(Cl)s2)c2c1CCCC2
% Inhibition: -11%
Z score: 2.29

O=C(c1ccc2ccccc2n1)N1CCC2(CC1)C[C@@H](N1CCOCC1)CCO2
% Inhibition: -6%
Z score: 0.75

COc1ccc2c(c1)c1cnn(Cc3cccc(C(F)(F)F)c3)c(=O)c1n2C
% Inhibition: 2%
Z score: -0.22

FC(F)(F)[C@@H]1CCC[C@H](C(F)(F)F)N1
% Inhibition: 0%
Z score: -0.05

O=C(c1ccc(Cl)s1)N1CC[C@H](c2ccc3c(c2)CCO3)C1
% Inhibition: 7%
Z score: -0.87

O=C(NCc1ccc([C@@H](O)c2ccsc2)s1)c1cccc(Cl)c1
% Inhibition: -12%
Z score: 1.49

CC(C)CN1CCCN(C(=O)C2CC=CC2)CC1
% Inhibition: 15%
Z score: -2.01

CC(C)CCN(CC1CN(CC(O)COC(C)C)CCO1)C(=O)c1ccccc1 (stereo not given)
% Inhibition: -12%
Z score: 1.63

CS(=O)(=O)CC1(Cn2ccc(C(F)(F)F)n2)CC1
% Inhibition: -10%
Z score: 1.17

CCc1nn(C)c(CC)c1CC(=O)NS(=O)(=O)CC1CCCC1
% Inhibition: -2%
Z score: 0.26

COC(=O)NCc1ccc(CNC(=O)OC)cc1
% Inhibition: -7%
Z score: 0.82

CCOc1nc2cc(C(=O)OCC[C@H]3CCCCN3C(=O)c3cccn3C)ccc2[nH]1
% Inhibition: -3%
Z score: 0.46

O=c1c(C(F)(F)F)nc2ccc(C(F)(F)F)cc2n1CC[C@H]1CCCO1
% Inhibition: -12%
Z score: 1.98

CC(C)n1ccnc1CNC(C1CCCC1)C1CCCC1
% Inhibition: -14%
Z score: 1.21

CCN(CC)CCNC(=O)c1cnn(-c2ncc3c(n2)-c2ccccc2CCC3)c1COC
% Inhibition: 14%
Z score: -1.89
